#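 Method: 48-hour compound exposure of cells in 96-well plates, five concentrations, linear interpolation of endpoints. TGI: concentration producing complete growth inhibition.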
# Experiments:
# Test in all cases: DTP human tumour cell line panel, 48 h
# 786-0 renal = tested on: 786-0 renal
# A498 renal = tested on: A498 renal
# A549 NSCLC = tested on: A549 NSCLC
# ACHN renal = tested on: ACHN renal
# CAKI-1 renal = tested on: CAKI-1 renal
# CCRF-CEM leukemia = tested on: CCRF-CEM leukemia
# COLO 205 colon = tested on: COLO 205 colon
# DMS 273 small cell lung = tested on: DMS 273 small cell lung
# EKVX NSCLC = tested on: EKVX NSCLC
# HCC-2998 colon = tested on: HCC-2998 colon
# HCT-116 colon = tested on: HCT-116 colon
# HCT-15 colon = tested on: HCT-15 colon
# HL-60(TB) leukemia = tested on: HL-60(TB) leukemia
# HOP-18 NSCLC = tested on: HOP-18 NSCLC
# HOP-62 NSCLC = tested on: HOP-62 NSCLC
# HOP-92 NSCLC = tested on: HOP-92 NSCLC
# HS 578T breast = tested on: HS 578T breast
# HT29 colon = tested on: HT29 colon
# IGROV1 ovarian = tested on: IGROV1 ovarian
# K-562 leukemia = tested on: K-562 leukemia
# KM12 colon = tested on: KM12 colon
# LOX IMVI melanoma = tested on: LOX IMVI melanoma
# LXFL 529 NSCLC = tested on: LXFL 529 NSCLC
# M14 melanoma = tested on: M14 melanoma
# M19-MEL melanoma = tested on: M19-MEL melanoma
# MALME-3M melanoma = tested on: MALME-3M melanoma
# MCF7 breast = tested on: MCF7 breast
# MDA-MB-231 breast = tested on: MDA-MB-231 breast
# MDA-N = tested on: MDA-N
# MOLT-4 leukemia = tested on: MOLT-4 leukemia
# NCI-H226 lung = tested on: NCI-H226 lung
# NCI-H23 lung = tested on: NCI-H23 lung
# NCI-H460 lung = tested on: NCI-H460 lung
# NCI-H522 lung = tested on: NCI-H522 lung
# NCI/ADR-RES ovarian = tested on: NCI/ADR-RES ovarian
# OVCAR-3 ovarian = tested on: OVCAR-3 ovarian
# OVCAR-4 ovarian = tested on: OVCAR-4 ovarian
# OVCAR-5 ovarian = tested on: OVCAR-5 ovarian
# OVCAR-8 ovarian = tested on: OVCAR-8 ovarian
# PC-3 prostate = tested on: PC-3 prostate
# RPMI-8226 leukemia = tested on: RPMI-8226 leukemia
# RXF 393 renal = tested on: RXF 393 renal
# SF-268 CNS = tested on: SF-268 CNS
# SF-295 CNS = tested on: SF-295 CNS
# SF-539 CNS = tested on: SF-539 CNS
# SK-MEL-2 melanoma = tested on: SK-MEL-2 melanoma
# SK-MEL-28 melanoma = tested on: SK-MEL-28 melanoma
# SK-MEL-5 melanoma = tested on: SK-MEL-5 melanoma
# SK-OV-3 ovarian = tested on: SK-OV-3 ovarian
# SN12C renal = tested on: SN12C renal
# SNB-19 CNS = tested on: SNB-19 CNS
# SNB-75 CNS = tested on: SNB-75 CNS
# SR leukemia = tested on: SR leukemia
# SW-620 colon = tested on: SW-620 colon
# T-47D breast = tested on: T-47D breast
# TK-10 renal = tested on: TK-10 renal
# U251 CNS = tested on: U251 CNS
# UACC-257 melanoma = tested on: UACC-257 melanoma
# UACC-62 melanoma = tested on: UACC-62 melanoma
# UO-31 renal = tested on: UO-31 renal
smiles,measurement,setting,value
CN[C@H]1CCc2cc(OC)c(OC)c(OC)c2-c2ccc(SC)c(=O)cc21,TGI,786-0 renal,53.9 µM
same,TGI,A498 renal,7.94 µM
same,TGI,A549 NSCLC,> 100 µM
same,TGI,ACHN renal,81.1 µM
same,TGI,CAKI-1 renal,85.1 µM
same,TGI,CCRF-CEM leukemia,61.3 µM
same,TGI,COLO 205 colon,0.0464 µM
same,TGI,DMS 273 small cell lung,> 100 µM
same,TGI,EKVX NSCLC,> 100 µM
same,TGI,HCC-2998 colon,24.1 µM
same,TGI,HCT-116 colon,27.5 µM
same,TGI,HCT-15 colon,29.4 µM
same,TGI,HL-60(TB) leukemia,0.0132 µM
same,TGI,HOP-18 NSCLC,> 100 µM
same,TGI,HOP-62 NSCLC,84 µM
same,TGI,HOP-92 NSCLC,15.9 µM
same,TGI,HS 578T breast,4.64 µM
same,TGI,HT29 colon,0.371 µM
same,TGI,IGROV1 ovarian,> 100 µM
same,TGI,K-562 leukemia,> 100 µM
same,TGI,KM12 colon,0.116 µM
same,TGI,LOX IMVI melanoma,65 µM
same,TGI,LXFL 529 NSCLC,> 100 µM
same,TGI,M14 melanoma,24.4 µM
same,TGI,M19-MEL melanoma,> 100 µM
same,TGI,MALME-3M melanoma,> 100 µM
same,TGI,MCF7 breast,22 µM
same,TGI,MDA-MB-231 breast,4.64 µM
same,TGI,MDA-N,> 100 µM
same,TGI,MOLT-4 leukemia,> 100 µM
same,TGI,NCI-H226 lung,0.86 µM
same,TGI,NCI-H23 lung,2.04 µM
same,TGI,NCI-H460 lung,21.5 µM
same,TGI,NCI-H522 lung,0.0118 µM
same,TGI,NCI/ADR-RES ovarian,> 100 µM
same,TGI,OVCAR-3 ovarian,0.158 µM
same,TGI,OVCAR-4 ovarian,> 100 µM
same,TGI,OVCAR-5 ovarian,97.1 µM
same,TGI,OVCAR-8 ovarian,4.47 µM
same,TGI,PC-3 prostate,> 100 µM
same,TGI,RPMI-8226 leukemia,54.9 µM
same,TGI,RXF 393 renal,74 µM
same,TGI,SF-268 CNS,87.9 µM
same,TGI,SF-295 CNS,0.0363 µM
same,TGI,SF-539 CNS,0.0332 µM
same,TGI,SK-MEL-2 melanoma,10.9 µM
same,TGI,SK-MEL-28 melanoma,> 100 µM
same,TGI,SK-MEL-5 melanoma,0.161 µM
same,TGI,SK-OV-3 ovarian,> 100 µM
same,TGI,SN12C renal,> 100 µM
same,TGI,SNB-19 CNS,> 100 µM
same,TGI,SNB-75 CNS,68.4 µM
same,TGI,SR leukemia,2.51 µM
same,TGI,SW-620 colon,> 100 µM
same,TGI,T-47D breast,> 100 µM
same,TGI,TK-10 renal,98.9 µM
same,TGI,U251 CNS,22.1 µM
same,TGI,UACC-257 melanoma,> 100 µM
same,TGI,UACC-62 melanoma,34.3 µM
same,TGI,UO-31 renal,> 100 µM

# Source: PubChem BioAssay (NCI)
